About 540 (0.36%) of roughly 150,000 compounds showed an effect of 50% or more. The list shows a part of the results.
These compounds were tested on Plasmodium falciparum (assay: Primary screen in NF54 nanoGlo assay, in single point, at 2uM, 72h; a lower Z score goes with more inhibition). Conditions: timepoint 72 hour.
Assay type: functional, Erythrocyte
With CCCc1nc(N[C@H](c2ccccc2)c2nnc(N)s2)c2cnn(C)c2n1 the “% Inhibition” value was 0% and the Z score was 0.05.
With COCCNC(=O)COc1ccc(-n2cccn2)nn1 the “% Inhibition” value was -8% and the Z score was 1.49.
With Cc1cccc(N(C)C(=O)COCCc2ccccc2)n1 the “% Inhibition” value was 2% and the Z score was -0.31.
With Cc1cc(C(=O)NC[C@@H](CO)Cc2ccccn2)ccc1F the “% Inhibition” value was -10% and the Z score was 1.01.
With CCN1C[C@]2(CCCN(C(=O)c3nc4ccc(C)cn4c3F)C2)CCC1=O the “% Inhibition” value was 0% and the Z score was 0.
In the case of O=C1Nc2ccccc2S(=O)(=O)N1Cc1cnn(-c2ccccc2)n1, the “% Inhibition” value is reported as -8% and the Z score is reported as 0.89.
With Cc1c(S(=O)(=O)c2ccccc2)c(NC(=O)[C@@H]2CCCO2)n(C2CCCC2)c1C the “% Inhibition” value was -9% and the Z score was 1.17.
With CCCCc1nc([C@@H]2CC(=O)Nc3cc(O)c(OC)cc32)c[nH]1 the “% Inhibition” value was -20% and the Z score was 3.14.
O=C(c1conc1C1CC1)N1CCC[C@H](c2nnc3ccccn23)C1 was tested, and the “% Inhibition” value was 10% and the Z score was -1.51.
In the case of Cc1ccoc1C(=O)N[C@@H]1CN(c2ncccn2)C[C@H]1CO, the “% Inhibition” value is reported as -10% and the Z score is reported as 1.43.
In the case of O=C(N1CC(F)C1)C1(S(=O)(=O)c2ccccc2)CCOCC1, the “% Inhibition” value is reported as -4% and the Z score is reported as 0.4.
O=C(c1ccc(F)cn1)N1CCCC[C@H]1c1n[nH]c2c1COCC2 was tested, and the “% Inhibition” value was -2% and the Z score was 0.16.
For CC(O)CC1CCCCN1Cc1nc(C(C)C)ns1 (stereo not given), the “% Inhibition” value was -6% and the Z score was 1.25.
With CCC(NC(=O)CC(O)C(C)C)c1ccccc1O (stereo not given) the “% Inhibition” value was -8% and the Z score was 0.86.
With C[C@@H](CO)NC(=O)C1CCC(F)(F)CC1 the “% Inhibition” value was 0% and the Z score was 0.03.
COC(=O)Nc1ccc(NC(=O)CC2CCC2)cc1F was tested, and the “% Inhibition” value was -7% and the Z score was 0.91.
For C=CCOc1ccc(CNCC(=O)N2CCCCC2)cc1, the “% Inhibition” value was 2% and the Z score was -0.35.
With CCOC(=S)c1c(N)oc2c1CCN(Cc1ccccc1)C2 the “% Inhibition” value was 2% and the Z score was -0.23.
For Cc1cccc(CC(=O)Nc2cnn(-c3cccc(C(=O)N4CCC[C@H]4CO)c3)c2)c1, the “% Inhibition” value was 13% and the Z score was -1.71.
For C[C@H]1CN(c2nccc(C(F)(F)F)n2)CC[C@]1(O)C1CC1, the “% Inhibition” value was -21% and the Z score was 2.75.
Oc1ccccc1-c1cc(-c2ccccc2)c2c(ccc3ccccc32)n1 was tested, and the “% Inhibition” value was -5% and the Z score was 0.64.
For N#Cc1ccc(Br)c(F)c1, the “% Inhibition” value was 6% and the Z score was -0.79.
NC(=O)CC[C@@H]1NC(=O)[C@@H]2Cc3c([nH]c4ccccc34)CN2C1=O was tested, and the “% Inhibition” value was 0% and the Z score was 0.02.
For Cc1ccc(C)c(CC(=O)N2CCCC[C@H]2c2ccnn2C)c1, the “% Inhibition” value was -7% and the Z score was 0.85.
With CCc1nnc2c(Oc3cccc(NS(=O)(=O)c4ccccc4C)c3)nc3ccccc3n12 the “% Inhibition” value was 4% and the Z score was -0.47.
For CC(CCc1ccco1)NC1CCN(CC(F)(F)F)C1 (stereo not given), the “% Inhibition” value was -3% and the Z score was 0.33.
C[C@@H](c1c(F)cccc1F)S(=O)(=O)CC(=O)N1CCCCCCC1 was tested, and the “% Inhibition” value was -4% and the Z score was 0.32.
In the case of COc1ccc2nc(N3CC(C(=O)Nc4ccon4)C3)sc2c1, the “% Inhibition” value is reported as -6% and the Z score is reported as 0.9.
For O=C1CCCC(=O)N1Cc1ccccc1, the “% Inhibition” value was 3% and the Z score was -0.33.
With CN(CC(=O)NCCCc1ccco1)c1nnc(N2CCCC2=O)s1 the “% Inhibition” value was -11% and the Z score was 2.07.
In the case of C[C@H]1CN(Cc2nnc(C(C)(C)C)o2)Cc2c[nH]nc21, the “% Inhibition” value is reported as -2% and the Z score is reported as 0.28.
With Cc1nc(OCC(=O)NCc2ccccc2)c2c(-c3ccc(F)cc3)noc2n1 the “% Inhibition” value was -3% and the Z score was 0.48.
For C[C@H]1c2ccsc2CCN1C(=O)C1CCN(C(=O)c2cccs2)CC1, the “% Inhibition” value was -4% and the Z score was 0.5.
CN(CC(=O)Nc1nc(CN2CCCCCC2)cs1)C1CC1 was tested, and the “% Inhibition” value was 6% and the Z score was -0.83.
COc1ccc(CNC(=O)c2cc(OC(C)C)c3ccsc3c2)cc1 was tested, and the “% Inhibition” value was 0% and the Z score was 0.06.
Cc1ccc(C(=O)N2C[C@@H]3CN(C(=O)C4CCC4)C[C@]3(C(=O)O)C2)c(C)c1 was tested, and the “% Inhibition” value was -3% and the Z score was 0.33.
For CC1CCN(C(=O)CCc2nnc3c4cc(-c5ccc(F)cc5)nn4ccn23)CC1, the “% Inhibition” value was -8% and the Z score was 1.09.
For Cc1cccc(S(=O)(=O)CCCN2CCc3nccc(N)c3C2)c1, the “% Inhibition” value was -1% and the Z score was 0.24.
In the case of Cc1ccc(CN2CCN(C(=O)NCc3ccco3)[C@@H](C)C2=O)cc1, the “% Inhibition” value is reported as 13% and the Z score is reported as -2.66.
With CC(=O)Nc1cccc(S(=O)(=O)NCCc2c(C)n3c4c(cccc24)CCC3)c1 the “% Inhibition” value was 7% and the Z score was -0.77.
In the case of C[C@]1(c2ccc(Cl)cc2)CC(=O)N(Cc2cccnc2C(F)(F)F)C1=O, the “% Inhibition” value is reported as -4% and the Z score is reported as 0.78.
With Cc1cccc(NC(=O)Cc2csc(NC(=O)[C@@H]3CCC(=O)N3)n2)c1C the “% Inhibition” value was -11% and the Z score was 1.31.
With CC(C)OCC(=O)N1CCC[C@@]2(CCC(=O)N(Cc3ccccc3)C2)C1 the “% Inhibition” value was -6% and the Z score was 1.29.
C=CCNC(=O)C1Cc2ccccc2N2CCN(CCc3ccccc3)CC12 (stereo not given) was tested, and the “% Inhibition” value was -12% and the Z score was 1.58.
For C=CCNC(=O)c1ccc(N(C)C[C@H]2CCOC2)nc1, the “% Inhibition” value was 5% and the Z score was -0.47.
For CCN(CC)c1ccc(NS(C)(=O)=O)cc1, the “% Inhibition” value was 2% and the Z score was -0.38.
Cc1cc(C)c(C)c(Cn2ccnc2)c1C was tested, and the “% Inhibition” value was -2% and the Z score was 0.33.
With Cc1ccc(C(=O)c2ccccc2C(=O)NCCCN2CCCC2=O)cc1C the “% Inhibition” value was 0% and the Z score was -0.04.
CCN(CC)S(=O)(=O)c1ccc2c(c1)nnn2CCNC(=O)OC(C)(C)C was tested, and the “% Inhibition” value was -6% and the Z score was 0.82.
Cc1ccc(-c2ncc(C(=O)NCc3ccco3)c(N3CCN(Cc4ccccc4)CC3)n2)cc1 was tested, and the “% Inhibition” value was -3% and the Z score was 0.35.
In the case of O=C1N(CC2CC2)CCC[C@@]12CCN(CCS(=O)(=O)c1ccccc1)C2, the “% Inhibition” value is reported as -3% and the Z score is reported as 0.4.
For Cc1cc2ncc(S(C)(=O)=O)c(NC(=O)C3CCCCC3)n2n1, the “% Inhibition” value was -3% and the Z score was 0.48.
For Fc1ccc(-c2cc(-c3ccc(Cl)cc3)c3c(n2)-c2cc(F)ccc2OC3)cc1, the “% Inhibition” value was 3% and the Z score was -0.55.
For CC(C)COc1ccc(NC(=O)C2CC2c2cnn(C)c2)cn1 (stereo not given), the “% Inhibition” value was -4% and the Z score was 0.58.
In the case of CCOc1ccccc1[C@@](N)(C(=O)NCCc1cc(F)cc2c1OCOC2)C(F)(F)F, the “% Inhibition” value is reported as -11% and the Z score is reported as 1.74.

— ChEMBL document CHEMBL4888484, “Replenishing the malaria drug discovery pipeline: Screening and hit evaluation of the MMV Hit Generation Library 1 (HGL1) against asexual blood stage Plasmodium falciparum ,using a nano luciferase reporter read-out” (2022)
